Data published in the supplement of paper PMC4967469.
A lower IC50 marks a more sensitive line; a limit (>, <) means that the fit lies beyond the doses tested. The AUC spans the tested range (256-fold, ending at the top dose) of the same fit; it is 1 without any effect and falls as sensitivity rises. Any top dose called inferred comes from the curve model; the source does not state it.

Compound: COc1ncc(-c2ccc3nccc(-c4ccnnc4)c3c2)cc1NS(=O)(=O)c1ccc(F)cc1F [GSK2126458]
Assay: Viability of human cancer cell lines after 72 h of drug (GDSC screen)
Details: top dose inferred
Procedure: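 Human cancer cell lines in 384-well plates, medium with 10% serum, drug for 72 h over a 256-fold dose range (nine 2-fold or five 4-fold steps up to the top dose). Adherent lines were fixed and stained with the nucleic acid dye Syto60, suspension lines read with resazurin; signal relative to control wells, capped at 0 and 100%. One two-parameter sigmoid per drug and line, fitted in a mixed model over all curves with the slope shared within a line.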

Cell Line | AUC | IC50
SKG-IIIa (cervix, adherent, top dose 0.128 µM) | 0.972 | > 128 nM
SKN (uterus, adherent, top dose 0.128 µM) | 0.88 | > 128 nM
SKN-3 (head and neck, adherent, top dose 0.128 µM) | 0.874 | > 128 nM
SLVL (B-cell lymphoma, suspension, top dose 0.128 µM) | 0.59 | 14.3 nM
SN12C (kidney, adherent, top dose 0.128 µM) | 0.941 | > 128 nM
SNB75 (glioma, adherent, top dose 0.128 µM) | 0.768 | 71 nM
SNG-M (endometrium, adherent, top dose 0.128 µM) | 0.57 | 12.4 nM
SNU-61 (large intestine, adherent, top dose 0.128 µM) | 0.824 | 110 nM
SNU-81 (large intestine, adherent, top dose 0.128 µM) | 0.568 | 13 nM
SNU-175 (large intestine, suspension, top dose 0.128 µM) | 0.773 | 47 nM
SNU-182 (liver, adherent, top dose 0.128 µM) | 0.735 | 38.8 nM
SNU-387 (liver, adherent, top dose 0.128 µM) | 0.672 | 26 nM
SNU-398 (liver, adherent, top dose 0.128 µM) | 0.84 | 93.3 nM
SNU-407 (large intestine, adherent, top dose 0.128 µM) | 0.631 | 19.5 nM
SNU-423 (liver, adherent, top dose 0.128 µM) | 0.569 | 12.7 nM
SNU-449 (liver, adherent, top dose 0.128 µM) | 0.733 | 39.8 nM
SNU-475 (liver, adherent, top dose 0.128 µM) | 0.928 | > 128 nM
SNU-1040 (large intestine, adherent, top dose 0.128 µM) | 0.728 | 45.3 nM
SNU-C1 (large intestine, suspension, top dose 1.024 µM) | 0.822 | 1020 nM
SNU-C2B (large intestine, adherent, top dose 1.024 µM) | 0.785 | 596 nM
SNU-C5 (large intestine, adherent, top dose 0.128 µM) | 0.822 | 85.2 nM
SR (lymphoid neoplasm, suspension, top dose 0.128 µM) | 0.43 | 5.24 nM
ST486 (Burkitt lymphoma, suspension, top dose 0.128 µM) | 0.501 | 8.05 nM
SU8686 (pancreas, adherent, top dose 0.128 µM) | 0.844 | 108 nM
SU-DHL-1 (anaplastic large cell lymphoma, suspension, top dose 0.128 µM) | 0.509 | 8.39 nM
SU-DHL-4 (B-cell lymphoma, suspension, top dose 0.128 µM) | 0.612 | 14.9 nM
SU-DHL-5 (B-cell lymphoma, suspension, top dose 0.128 µM) | 0.27 | 2.17 nM

Cell Line | AUC | IC50
SU-DHL-6 (B-cell lymphoma, suspension, top dose 0.128 µM) | 0.049 | < 0.5 nM
SU-DHL-8 (B-cell lymphoma, suspension, top dose 0.128 µM) | 0.464 | 6.42 nM
SU-DHL-10 (B-cell lymphoma, suspension, top dose 0.128 µM) | 0.343 | 3.35 nM
SU-DHL-16 (B-cell lymphoma, suspension, top dose 0.128 µM) | 0.037 | < 0.5 nM
SUIT-2 (pancreas, adherent, top dose 0.128 µM) | 0.483 | 7.2 nM
SUP-B15 (lymphoblastic leukaemia, suspension, top dose 0.128 µM) | 0.371 | 3.59 nM
SUP-HD1 (Hodgkin lymphoma, suspension, top dose 0.128 µM) | 0.473 | 6.78 nM
SUP-M2 (anaplastic large cell lymphoma, suspension, top dose 0.128 µM) | 0.234 | 1.73 nM
SUP-T1 (T-cell lymphoblastic leukaemia, suspension, top dose 1.024 µM) | 0.578 | 102 nM
SW13 (adrenal gland, adherent, top dose 0.128 µM) | 0.971 | > 128 nM
SW48 (large intestine, adherent, top dose 1.024 µM) | 0.771 | 390 nM
SW156 (kidney, adherent, top dose 0.128 µM) | 0.735 | 40.9 nM
SW620 (large intestine, adherent, top dose 1.024 µM) | 0.418 | 39.2 nM
SW626 (ovary, adherent, top dose 0.128 µM) | 0.632 | 19.8 nM
SW684 (fibrosarcoma, adherent, top dose 0.128 µM) | 0.925 | > 128 nM
SW756 (cervix, adherent, top dose 0.128 µM) | 0.934 | > 128 nM
SW780 (bladder, adherent, top dose 0.128 µM) | 0.956 | > 128 nM
SW837 (large intestine, adherent, top dose 0.128 µM) | 0.74 | 49.3 nM
SW872 (soft tissue, adherent, top dose 0.128 µM) | 0.883 | 114 nM
SW900 (lung squamous cell carcinoma, adherent, top dose 0.128 µM) | 0.838 | 107 nM
SW948 (large intestine, adherent, top dose 1.024 µM) | 0.45 | 43.9 nM
SW954 (urogenital system, adherent, top dose 0.128 µM) | 0.38 | 3.73 nM
SW962 (urogenital system, adherent, top dose 0.128 µM) | 0.891 | > 128 nM
SW982 (soft tissue, adherent, top dose 0.128 µM) | 0.702 | 30.2 nM
SW1088 (glioma, adherent, top dose 0.128 µM) | 0.734 | 46.4 nM
SW1116 (large intestine, adherent, top dose 0.128 µM) | 0.985 | > 128 nM
SW1271 (small cell lung carcinoma, adherent, top dose 0.128 µM) | 0.894 | > 128 nM

Cell Line | AUC | IC50
SW1417 (large intestine, adherent, top dose 0.128 µM) | 0.897 | > 128 nM
SW1463 (large intestine, adherent, top dose 0.128 µM) | 0.702 | 45.1 nM
SW1573 (lung adenocarcinoma, adherent, top dose 0.128 µM) | 0.893 | > 128 nM
SW1710 (bladder, adherent, top dose 0.128 µM) | 0.686 | 27.1 nM
SW1783 (glioma, adherent, top dose 0.128 µM) | 0.789 | 50.6 nM
SW1990 (pancreas, adherent, top dose 0.128 µM) | 0.893 | > 128 nM
Saos-2 (osteosarcoma, adherent, top dose 0.128 µM) | 0.943 | > 128 nM
SiHa (cervix, adherent, top dose 0.128 µM) | 0.968 | > 128 nM
T84 (large intestine, adherent, top dose 0.128 µM) | 0.743 | 40.4 nM
T98G (glioma, adherent, top dose 0.128 µM) | 0.776 | 47.1 nM
T-24 (bladder, adherent, top dose 0.128 µM) | 0.887 | > 128 nM
T-T (oesophagus, adherent, top dose 0.128 µM) | 0.838 | 86.2 nM
TALL-1 (T-cell lymphoblastic leukaemia, suspension, top dose 0.128 µM) | 0.93 | > 128 nM
TC-71 (Ewing sarcoma, adherent, top dose 0.128 µM) | 0.548 | 10.5 nM
TCCSUP (bladder, adherent, top dose 0.128 µM) | 0.886 | > 128 nM
TE-1 (oesophagus, adherent, top dose 0.128 µM) | 0.914 | > 128 nM
TE-4 (oesophagus, adherent, top dose 0.128 µM) | 0.612 | 16.2 nM
TE-5 (oesophagus, adherent, top dose 0.128 µM) | 0.781 | 61.8 nM
TE-6 (oesophagus, adherent, top dose 0.128 µM) | 0.927 | > 128 nM
TE-8 (oesophagus, adherent, top dose 0.128 µM) | 0.966 | > 128 nM
TE-9 (oesophagus, adherent, top dose 0.128 µM) | 0.984 | > 128 nM
TE-10 (oesophagus, adherent, top dose 0.128 µM) | 0.851 | 95 nM
TE-11 (oesophagus, adherent, top dose 0.128 µM) | 0.937 | > 128 nM
TE-12 (oesophagus, suspension, top dose 0.128 µM) | 0.825 | 100 nM
TE-15 (oesophagus, suspension, top dose 0.128 µM) | 0.665 | 24.6 nM
